Data: the supplement of paper PMC8728848
The list shows a part of the results.

Legend:
Test in all cases: glycan array binding signal (z-score within array); higher = stronger binding
Details in all cases: glycan notation: IUPAC condensed, linker removed
[1] = target: GlcNAc(b1-3)Gal(b1-3)GalNAc
Procedure, shortened: (§1)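 Glycan array data were curated from 3228 arrays in the Consortium for Functional Glycomics database and kept only where the protein sequence was available. Glycan names were converted to IUPAC-condensed notation, and columns mapping to the same glycan were averaged. The binding signal is a within-array Z-score, averaged across arrays of the same protein sequence at different concentrations or buffers and across linkers. Negative Z-scores can be read as non-binding.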

[2] = target: GlcNAc(b1-3)Gal(b1-4)Glc
Procedure, shortened: as §1

[3] = target: GlcNAc(b1-3)Gal(b1-4)GlcNAc
Procedure, shortened: as §1

[4] = target: GlcNAc(b1-3)Gal(b1-4)GlcNAc(b1-3)Gal(b1-4)GlcNAc
Procedure, shortened: as §1

[5] = target: GlcNAc(b1-3)GalNAc
Procedure, shortened: as §1

[6] = target: GlcNAc(b1-3)Man
Procedure, shortened: as §1

[7] = target: GlcNAc(b1-3)[GlcNAc(b1-4)][GlcNAc(b1-6)]GlcNAc
Procedure, shortened: as §1

[8] = target: GlcNAc(b1-3)[GlcNAc(b1-6)]Gal(b1-4)GlcNAc
Procedure, shortened: as §1

[9] = target: GlcNAc(b1-3)[GlcNAc(b1-6)]GalNAc
Procedure, shortened: as §1

[10] = target: GlcNAc(b1-4)Gal(b1-4)GlcNAc
Procedure, shortened: as §1

[11] = target: GlcNAc(b1-4)GlcNAc
Procedure, shortened: as §1

[12] = target: GlcNAc(b1-4)GlcNAc(b1-4)GlcNAc
Procedure, shortened: as §1

[13] = target: GlcNAc(b1-4)GlcNAc(b1-4)GlcNAc(b1-4)GlcNAc(b1-4)GlcNAc
Procedure, shortened: as §1

[14] = target: GlcNAc(b1-4)GlcNAc(b1-4)GlcNAc(b1-4)GlcNAc(b1-4)GlcNAc(b1-4)GlcNAc
Procedure, shortened: as §1

[15] = target: GlcNAc(b1-4)[GlcNAc(b1-6)]GalNAc
Procedure, shortened: as §1

[16] = target: GlcNAc(b1-6)Gal(b1-4)GlcNAc
Procedure, shortened: as §1

[17] = target: GlcNAc(b1-6)GalNAc
Procedure, shortened: as §1

[18] = target: GlcNAc3Prop(b1-4)GlcNAc
Procedure, shortened: as §1

[19] = target: GlcNAc6S(b1-3)Gal(b1-4)GlcNAc
Procedure, shortened: as §1

[20] = target: Kdn(a2-3)Gal(b1-3)GalNAc
Procedure, shortened: as §1

[21] = target: Kdn(a2-3)Gal(b1-3)GlcNAc
Procedure, shortened: as §1

[22] = target: Kdn(a2-3)Gal(b1-4)Glc
Procedure, shortened: as §1

[23] = target: Kdn(a2-3)Gal(b1-4)GlcNAc
Procedure, shortened: as §1

[24] = target: Kdn(a2-3)Gal(b1-4)[Fuc(a1-3)]GlcNAc
Procedure, shortened: as §1

[25] = target: Kdn(a2-6)Gal(b1-4)GlcNAc
Procedure, shortened: as §1

[26] = target: Man(a1-2)Man(a1-2)Man(a1-3)Man
Procedure, shortened: as §1

[27] = target: Man(a1-2)Man(a1-2)Man(a1-6)[Man(a1-3)]Man
Procedure, shortened: as §1

[28] = target: Man(a1-2)Man(a1-3)Man
Procedure, shortened: as §1

[29] = target: Man(a1-2)Man(a1-3)[Man(a1-2)Man(a1-6)]Man
Procedure, shortened: as §1

[30] = target: Man(a1-2)Man(a1-3)[Man(a1-2)Man(a1-6)]Man(a1-6)[Man(a1-2)Man(a1-2)Man(a1-3)]Man
Procedure, shortened: as §1

[31] = target: Man(a1-2)Man(a1-3)[Man(a1-2)Man(a1-6)]Man(a1-6)[Man(a1-2)Man(a1-2)Man(a1-3)]Man(b1-4)GlcNAc(b1-4)GlcNAc
Procedure, shortened: as §1

[32] = target: Man(a1-2)Man(a1-3)[Man(a1-6)]Man(a1-6)[Man(a1-2)Man(a1-3)]Man(b1-4)GlcNAc(b1-4)GlcNAc
Procedure, shortened: as §1

[33] = target: Man(a1-2)Man(a1-6)[Man(a1-3)]Man(a1-6)[Man(a1-2)Man(a1-2)Man(a1-3)]Man
Procedure, shortened: as §1

[34] = target: Man(a1-2)Man(a1-6)[Man(a1-3)]Man(a1-6)[Man(a1-2)Man(a1-2)Man(a1-3)]Man(b1-4)GlcNAc(b1-4)GlcNAc
Procedure, shortened: as §1

[35] = target: Man(a1-3)[Man(a1-6)]Man
Procedure, shortened: as §1

[36] = target: Man(a1-3)[Man(a1-6)]Man(a1-6)[Man(a1-2)Man(a1-3)]Man(b1-4)GlcNAc(b1-4)GlcNAc
Procedure, shortened: as §1

[37] = target: Man(a1-3)[Man(a1-6)]Man(a1-6)[Man(a1-3)]Man
Procedure, shortened: as §1

[38] = target: Man(a1-3)[Man(a1-6)]Man(a1-6)[Man(a1-3)]Man(b1-4)GlcNAc(b1-4)GlcNAc
Procedure, shortened: as §1

[39] = target: Man(a1-3)[Man(a1-6)]Man(b1-4)GlcNAc(b1-4)GlcNAc
Procedure, shortened: as §1

[40] = target: Man(a1-6)Man
Procedure, shortened: as §1

[41] = target: Man(b1-4)GlcNAc
Procedure, shortened: as §1

[42] = target: Neu5Ac(a2-3)Gal
Procedure, shortened: as §1

[43] = target: Neu5Ac(a2-3)Gal(b1-3)GalNAc
Procedure, shortened: as §1

[44] = target: Neu5Ac(a2-3)Gal(b1-3)GalNAc(b1-3)Gal(a1-4)Gal(b1-4)Glc
Procedure, shortened: as §1

[45] = target: Neu5Ac(a2-3)Gal(b1-3)GalNAc(b1-4)[Neu5Ac(a2-3)]Gal(b1-4)Glc
Procedure, shortened: as §1

B1: Tap1 (Sordaria macrospora), Q50IV4 (protein)
chain: MSHHHHHHHHYTLHLRLINDTSDTLTLVEQTSWWGKNTIWSQVRSTGVHVLSMAASGSSGMLRFQTSKGDFFAVAVGVHNYKRWCDVLVDTADEAPLTKLHPKYYDDKDAKYQALWAQASEFEAKSKSGKTVRIKFYQADGNVLRATVEYL
- glycan array binding signal (z-score) [1]: 2.84
- glycan array binding signal (z-score) [2]: -0.241
- glycan array binding signal (z-score) [3]: -0.246
- glycan array binding signal (z-score) [4]: -0.248
- glycan array binding signal (z-score) [5]: 1.62
- glycan array binding signal (z-score) [6]: -0.237
- glycan array binding signal (z-score) [7]: -0.246
- glycan array binding signal (z-score) [8]: -0.248
- glycan array binding signal (z-score) [9]: -0.007
- glycan array binding signal (z-score) [10]: -0.233
- glycan array binding signal (z-score) [11]: -0.175
- glycan array binding signal (z-score) [12]: -0.256
- glycan array binding signal (z-score) [13]: -0.258
- glycan array binding signal (z-score) [14]: -0.248
- glycan array binding signal (z-score) [15]: -0.248
- glycan array binding signal (z-score) [16]: -0.251
- glycan array binding signal (z-score) [17]: 0.273
- glycan array binding signal (z-score) [18]: -0.239
- glycan array binding signal (z-score) [19]: -0.007
- glycan array binding signal (z-score) [20]: 3.63
- glycan array binding signal (z-score) [21]: -0.055
- glycan array binding signal (z-score) [22]: -0.222
- glycan array binding signal (z-score) [23]: -0.238
- glycan array binding signal (z-score) [24]: -0.075
- glycan array binding signal (z-score) [25]: -0.233
- glycan array binding signal (z-score) [26]: -0.235
- glycan array binding signal (z-score) [27]: -0.256
- glycan array binding signal (z-score) [28]: -0.21
- glycan array binding signal (z-score) [29]: -0.218
- glycan array binding signal (z-score) [30]: -0.249
- glycan array binding signal (z-score) [31]: -0.228
- glycan array binding signal (z-score) [32]: -0.226
- glycan array binding signal (z-score) [33]: -0.238
- glycan array binding signal (z-score) [34]: -0.234
- glycan array binding signal (z-score) [35]: -0.242
- glycan array binding signal (z-score) [36]: -0.252
- glycan array binding signal (z-score) [37]: -0.241
- glycan array binding signal (z-score) [38]: -0.246
- glycan array binding signal (z-score) [39]: -0.236
- glycan array binding signal (z-score) [40]: -0.182
- glycan array binding signal (z-score) [41]: -0.219
- glycan array binding signal (z-score) [42]: -0.232
- glycan array binding signal (z-score) [43]: 4.27
- glycan array binding signal (z-score) [44]: -0.222
- glycan array binding signal (z-score) [45]: -0.255
